{
  "source": "patent US6794144",
  "about": "(LICENTIA, dated 2004)",
  "molecular_target": "T1, plain GST (UniProt P08515 = GST)",
  "T1 construct": "Control coating protein",
  "T1 sequence (P08515 whole entry, the tested form may be a part)": "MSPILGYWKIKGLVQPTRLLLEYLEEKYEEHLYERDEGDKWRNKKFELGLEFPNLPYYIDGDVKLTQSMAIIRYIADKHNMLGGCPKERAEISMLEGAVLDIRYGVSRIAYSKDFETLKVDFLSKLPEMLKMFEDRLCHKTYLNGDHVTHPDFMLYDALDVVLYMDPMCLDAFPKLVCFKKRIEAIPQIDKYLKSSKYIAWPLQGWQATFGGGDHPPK",
  "test": "phage capture on coated six-well plates (data not shown)",
  "data": [
    {"binder": "Hck-SH3 displayed on M13 phage fused to the pIII coat protein (other, domain: SH3; also called recombinant phages expressing Hck-SH3) SEDIIVVALYDYEAIHHEDLSFQKGDQMVVLEESGEWWKARSLATRKEGYIPSNYVARVDS", "values": [
      {"measurement": "binding result", "value": "no binding"}
    ]}
  ]
}
